Measurements published in paper PMC4242493.
Some of the results follow. The list includes weakly bound sequences.

What follows are sequences tested against MaxL homodimer (UniProt P61244) (assay: universal protein-binding microarray (PBM)). Conditions: PBS-based mixture, 10 nM His-tagged protein dimer, 2% milk, 200 ng/uL BSA, 50 ng/uL salmon testes DNA, 0.02% TX-100; detection with Alexa 488 anti-His …; high values mean tight binding; most listed sequences are background and not binding sites; double strand, one strand shown.
Sequence of UniProt P61244 (P61244 whole entry): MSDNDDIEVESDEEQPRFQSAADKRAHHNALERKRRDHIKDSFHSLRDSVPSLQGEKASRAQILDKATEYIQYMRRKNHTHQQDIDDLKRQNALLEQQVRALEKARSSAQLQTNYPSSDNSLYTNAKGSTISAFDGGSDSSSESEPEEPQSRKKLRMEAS

| Sequence | binding signal (normalized occupancy) |
| --- | --- |
| GAAGCGAA | 0.0707 |
| GACTGAAA | 0.0682 |
| ACGGGTGC | 0.0759 |
| GCTGACAA | 0.0757 |
| CTAATCAG | 0.0724 |
| CGGGTCGA | 0.0689 |
| AGCGTGCC | 0.0969 |
| ACCTCTAG | 0.0704 |
| AACGCCAG | 0.072 |
| AATTTAGG | 0.073 |
| CCGAGCAA | 0.0677 |
| CACGTTCG | 0.0852 |
| AGCAACCA | 0.0745 |
| ACACGCTC | 0.0924 |
| CCGACCCG | 0.078 |
| ACTACTAG | 0.0785 |
| GAGATCTA | 0.0758 |
| AAGCTAGG | 0.0695 |
| CCGGTGTC | 0.0704 |
| CTAATACA | 0.0822 |
| AAATGCAA | 0.0709 |
| ATTCGCGA | 0.0732 |
| CAGGATCA | 0.078 |
| CGGCTTGA | 0.0699 |
| ATCGGGGG | 0.0753 |

| Sequence | binding signal (normalized occupancy) |
| --- | --- |
| GACCGAAA | 0.0684 |
| CTGCTGCC | 0.0719 |
| CCTGCTAA | 0.0709 |
| GGCTGACC | 0.0689 |
| ATACTGAG | 0.0804 |
| GCGTACGC | 0.0765 |
| ATCGCTTG | 0.0686 |
| ACTGTACC | 0.076 |
| CGTATGAA | 0.0812 |
| CATGTAAG | 0.0926 |
| AGTCCGCC | 0.0705 |
| ATTACCGG | 0.074 |
| CGGATACC | 0.0816 |
| ACCTGTTG | 0.0865 |
| ATTTAATC | 0.0756 |
| CAGATAAG | 0.076 |
| CGGACTCC | 0.0635 |
| CTTTGGAC | 0.0706 |
| ATAGGCAG | 0.0779 |
| ATCAGATC | 0.082 |
| ATTTTCGA | 0.0726 |
| CCTTTGGA | 0.0699 |
| CATATTCG | 0.0814 |
| AGATTCAT | 0.078 |
| GGGACGAA | 0.0687 |

| Sequence | binding signal (normalized occupancy) |
| --- | --- |
| CTGTCCTA | 0.0723 |
| CCTTTGGC | 0.0703 |
| AGATCTGC | 0.0741 |
| CTCGGCGA | 0.0687 |
| ATAAATCC | 0.0781 |
| CGTCACGA | 0.0766 |
| CATCCGTC | 0.0789 |
| ATCGTCTG | 0.0761 |
| ATACTCGG | 0.0764 |
| GGCCAAAA | 0.0691 |
| ACAGTGCA | 0.0754 |
| CCCGATCA | 0.0749 |
| CGACGTGA | 0.0883 |
| CATAGTAC | 0.0755 |
| ATCTGAGC | 0.0747 |
| CCGACATC | 0.0772 |
| CAGGACTC | 0.0682 |
| AATCCTGA | 0.0752 |
| CATCACCA | 0.0798 |
| ATCATTGG | 0.0775 |
| GACCTATC | 0.0732 |
| CTAGAAAC | 0.0803 |
| GCAGGCCC | 0.0707 |
| AGTTGGGA | 0.0709 |
| GCGGTCTA | 0.0713 |

| Sequence | binding signal (normalized occupancy) |
| --- | --- |
| ATATAGCC | 0.0832 |
| ATGCTCGA | 0.0758 |
| CCCCGACG | 0.0767 |
| ACTTTTAT | 0.0748 |
| GGGGACCC | 0.0712 |
| TGAAGTCA | 0.0773 |
| GCCAAGTA | 0.075 |
| GACTGGGA | 0.0742 |
| CAGGGGTA | 0.078 |
| ATAAAGAC | 0.0757 |
| GAACCCTC | 0.0726 |
| AGTGCTCG | 0.0762 |
| ACACTATC | 0.0773 |
| AAAGATCT | 0.0773 |
| ACGCTTCC | 0.0742 |
| GGTTCCCA | 0.0768 |
| CAGGACAG | 0.0687 |
| CGTATCAG | 0.0743 |
| GGTCGATA | 0.078 |
| ATGAACGG | 0.0783 |
| GGATGATA | 0.08 |
| ACTCAACG | 0.0735 |
| AGTCATGA | 0.0829 |
| GGAATTTA | 0.0731 |
| GACACTGA | 0.0732 |

| Sequence | binding signal (normalized occupancy) |
| --- | --- |
| GCTAGCTA | 0.0692 |
| AGTTACGA | 0.0728 |
| CTCCACAA | 0.0785 |
| AGCAACGC | 0.0759 |
| ATAATGTA | 0.0785 |
| GATGCCGC | 0.0728 |
| CGTGAAGC | 0.0768 |
| ACTCGCAC | 0.0754 |
| ACCCTTGG | 0.073 |
| CCATGACA | 0.0836 |
| ACATAGTA | 0.0805 |
| CCCACCCC | 0.0962 |
| GCTAAACC | 0.068 |
| CGGGGTAG | 0.0745 |
| ATCCTCGC | 0.0792 |
| AACTCGGA | 0.0717 |
| AAGTGACA | 0.0696 |
| CCGGTCGA | 0.0704 |
| CGACTAGC | 0.0689 |
| GCCATCGC | 0.0707 |
| AATTTATC | 0.0771 |
| TAAGAATA | 0.0806 |
| AAAGCGGA | 0.0709 |
| AAACGCAC | 0.0809 |
| ATAAGCCC | 0.0759 |

| Sequence | binding signal (normalized occupancy) |
| --- | --- |
| ATTGCACC | 0.0832 |
| AGAGAGAA | 0.0699 |
| TCATTGAA | 0.0753 |
| AAATATAC | 0.0881 |
| ACAACGCT | 0.0803 |
| GACCCACA | 0.0775 |
| GAGCCTGC | 0.071 |
| ACTCGCAG | 0.0677 |
| AAGCGTCA | 0.0737 |
| GAGAGCGA | 0.0704 |
| CTGATACA | 0.0809 |
| AAAGTGGC | 0.0672 |
| GAGGGGGC | 0.0771 |
| AGCGCAAA | 0.0664 |
| ACCAACGT | 0.0789 |
| GGCAACCC | 0.0699 |
| AAATCACT | 0.0745 |
| CCTAGCCA | 0.0783 |
| GATGTAGA | 0.0799 |
| ATACTGTG | 0.0808 |
| CAATGTGC | 0.0924 |
| ACTCGGAT | 0.074 |
| CTCATAGC | 0.0789 |
| AATGATCC | 0.0784 |
| ATCAAGAG | 0.0749 |

| Sequence | binding signal (normalized occupancy) |
| --- | --- |
| CGTCTAAG | 0.0723 |
| GAATTGTA | 0.0744 |
| ACTTCCAA | 0.07 |
| GCACTAAA | 0.0704 |
| GTGGCTGA | 0.0794 |
| AGATTAGA | 0.0745 |
| AGCCCATG | 0.0859 |
| GCTCGAGC | 0.0735 |
| CTCATACA | 0.0799 |
| ACAGCGCT | 0.0737 |
| AATGCAAA | 0.078 |
| ACTGCAAC | 0.0754 |
| ATCGCTCC | 0.0708 |
| AGATATCG | 0.0755 |
| GAAGCAAC | 0.0766 |
| AGTCAGGA | 0.0709 |
| ATGGAACG | 0.0825 |
| CATCACCC | 0.0788 |
| AAAATCTA | 0.0767 |
| TAGGGCCA | 0.0687 |
| GACCAGCA | 0.0755 |
| CTCGGGCC | 0.0685 |
| GCGCTCGA | 0.0726 |
| GGGAGAAA | 0.0747 |
| CACCATGC | 0.108 |

| Sequence | binding signal (normalized occupancy) |
| --- | --- |
| ATCAGAAC | 0.075 |
| AGGTATAT | 0.0856 |
| ACACAGTA | 0.0795 |
| CACCTTAG | 0.0719 |
| CTTGAGTA | 0.0664 |
| AGCGCCTG | 0.0742 |
| GACATCTA | 0.072 |
| ATAACACC | 0.081 |
| GGACGCAC | 0.0836 |
| AAGTATGT | 0.0819 |
| CCGCCTTC | 0.0732 |
| CGGAGGCC | 0.0623 |
| CCGGCTCG | 0.0672 |
| CATGCCGA | 0.102 |
| ACGTGGTC | 0.106 |
| AACTCTTA | 0.0707 |
| CCTCTATC | 0.0748 |
| TAATCGAA | 0.079 |
| GCGCTGAC | 0.0768 |
| ATAATCAC | 0.0829 |
| ACCTGGTC | 0.0739 |
| TGATCGCA | 0.0847 |
| GGTCTAAC | 0.0697 |
| GACCAGGC | 0.0752 |
| ACAAGTTG | 0.0751 |

| Sequence | binding signal (normalized occupancy) |
| --- | --- |
| AGGGGCTC | 0.073 |
| CATCTGAC | 0.0791 |
| AAAGTAAA | 0.0701 |
| GCCCACCA | 0.0804 |
| CATTGATA | 0.078 |
| CTTGCCTA | 0.0693 |
| GCAACCGC | 0.068 |
| AATACACA | 0.0926 |
| TAACAGCA | 0.0789 |
| ACCGATTC | 0.0693 |
| ACTGAACT | 0.0716 |
| AGCGGTGC | 0.0675 |
| CATTTTGC | 0.0761 |
| GCTATATA | 0.0859 |
| AGGGGTGC | 0.0846 |
| CAACTATC | 0.0737 |
| CGTAGCGC | 0.0712 |
| CACATATC | 0.0837 |
| AATTTTCA | 0.0736 |
